{"source": "PubChem BioAssay AID504845", "about": "(National Center for Advancing Translational Sciences (NCATS), 2011)", "note": "Hit rate of the full screen: of about 390,000 compounds, about 150 (0.038%) were called active. This list was built around the results that the source calls inconclusive (neither active nor inactive); the mix of calls is not that of the screen. Calls come from the whole dose curve; as a rule, active = well fitted inhibition curve with a large enough effect; inconclusive = small, poorly fitted or top-dose-only effect; inactive = no such curve, though single readings can be large or run the other way. Potencies beside an inconclusive call are fits to weak or partial responses and may not hold up. % is set by controls: 0 for no effect and ±100 for the full control effect; potency is the fitted concentration of half-maximal effect; tags give direction and shape of the fitted curve."}
{"biological_target": "Regulator of G-protein signaling 4 (Homo sapiens) (UniProt P49798)", "sequence (P49798 whole entry, looked up)": "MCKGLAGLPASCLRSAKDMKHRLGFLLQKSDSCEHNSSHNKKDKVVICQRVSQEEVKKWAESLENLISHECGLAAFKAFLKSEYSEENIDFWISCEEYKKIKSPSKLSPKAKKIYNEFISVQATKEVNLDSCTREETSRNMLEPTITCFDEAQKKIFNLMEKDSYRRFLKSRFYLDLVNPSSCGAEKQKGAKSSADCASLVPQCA", "assay": "Inhibitors of Regulator of G Protein Signaling (RGS) 4: qHTS; note: nearly all actives have a fitted effect of over 75% in size", "conditions": "Transcreener GDP fluorescence polarization, RGS4-accelerated GTP hydrolysis; series mostly up to 114 µM", "procedure,_shortened": "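MLSMR compounds (23 nl, pin-transferred) preincubated 10 min at room temperature with a 500nM (2x) first reagent, then RGS4 at 900nM (2x) plus Transcreener GDP mix added; fluorescence polarization (620/688 nm) read before and after 90 min at 30 °C.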"}
{"smiles": "CCCC(=O)NCCc1c2n(c3ccc(OC)cc13)CCCc1ccccc1-2", "Potency": "inactive"}
{"smiles": "CCCCC(=O)NC(c1ccc(N(C)C)cc1)c1ccc2cccnc2c1O", "note": "(configuration not stated)", "Potency": "inactive"}
{"smiles": "N#Cc1ccc(OCC(=O)N2CCN(c3ccc(C(F)(F)F)cn3)CC2)cc1", "Potency": "inconclusive: 100 µM [inhibitor, partial curve, poor fit]"}
{"smiles": "COc1ccccc1NC(=O)CSc1nc2sc(C)c(C)c2c(=O)n1Cc1ccco1", "Potency": "inconclusive: 17.8 µM [inhibitor, full curve, poor fit]"}
{"smiles": "O=C(Nc1ccccc1N1CCOCC1)c1cccc2c(Br)cccc12", "Potency": "inactive"}
{"smiles": "CC(C)Nc1nc(-c2ccncc2)nc(-c2ccc(Cl)cc2)c1C#N", "Potency": "inconclusive: 56.2 µM [inhibitor, partial curve, poor fit]"}
{"smiles": "Cc1cccc(C(=O)Nc2ccc(C(=O)/C=C/c3cccnc3)cc2)c1", "Potency": "inconclusive: 79.4 µM [inhibitor, partial curve, poor fit]"}
{"smiles": "Cc1cc([N+](=O)[O-])nn1CCCC(=O)Nc1sc2c(c1C(N)=O)CCCC2", "Potency": "inconclusive: 79.4 µM [inhibitor, partial curve, poor fit]"}
{"smiles": "CCN1C(=O)[C@H]2[C@@H](c3ccc(C)cc3)N3C(=O)N(c4cccc(F)c4)C(=O)[C@@]3(CC)[C@H]2C1=O", "Potency": "inconclusive: 89.1 µM [inhibitor, partial curve, poor fit]"}
{"smiles": "Cc1ccc(-n2ncc3c(N4CCN(Cc5ccccc5)CC4)ncnc32)cc1", "Potency": "inactive"}
{"smiles": "CCOc1ccc(OCCC(=O)OCC(=O)Nc2ccc(Cl)cn2)cc1", "Potency": "inactive"}
{"smiles": "CC(C)(NC(=O)c1ccccc1)c1nc2ccccc2s1", "Potency": "inconclusive: 70.8 µM [inhibitor, partial curve, poor fit]"}
{"smiles": "Cc1cc(C)c(/C=C2\\C(=O)Nc3ccccc32)[nH]1", "Potency": "inconclusive: 9.47 µM [inhibitor, partial curve, poor fit]"}
{"smiles": "Nc1ccccc1Sc1ccc(C(=O)c2ccccc2C(=O)O)cc1[N+](=O)[O-]", "Potency": "inconclusive: 25.1 µM [inhibitor, full curve, poor fit]"}
{"smiles": "COc1ccccc1Nc1nc(N)nc(CN2CC(C)CC(C)C2)n1", "note": "(configuration not stated)", "Potency": "inactive"}
{"smiles": "CCN(C(=O)Cn1nnc2sc(-c3ccccc3)cc2c1=O)c1cccc(C)c1", "Potency": "inconclusive: 28.2 µM [inhibitor, full curve, poor fit]"}
{"smiles": "Cc1ccc(-n2c(O)c(C=Nc3cc(C)on3)c3ccccc3c2=O)c(C)c1", "Potency": "inactive"}
{"smiles": "CC(C)n1c(CSCc2ccc(Cl)cc2Cl)n[nH]c1=S", "Potency": "inconclusive: 89.1 µM [inhibitor, partial curve, poor fit]"}
{"smiles": "COc1ccc(N2CC(NC(=O)C3CC3)CC2=O)cc1OC", "note": "(configuration not stated)", "Potency": "inactive"}
{"smiles": "O=c1cc(-c2ccc(O)cc2)oc2cccc(O)c12", "Potency": "active: 2.12 µM"}
{"smiles": "O=c1[nH]c(=O)n(CCO)c2nnn(Cc3ccccc3)c12", "Potency": "inactive"}
{"smiles": "CCC1=Nc2cc(C(=O)NCc3cccnc3)ccc2Sc2ccc(C)cc21", "Potency": "inactive"}
{"smiles": "Cc1ccc(CNC(=O)CN(c2ccc(C)cc2)S(=O)(=O)c2c(C)nn(C)c2C)cc1", "Potency": "inconclusive: 56.2 µM [inhibitor, partial curve, poor fit]"}
{"smiles": "Cc1ccc2oc(=O)n(CC(=O)O)c2c1", "Potency": "inconclusive: 56.2 µM [inhibitor, partial curve, poor fit]"}
{"smiles": "C/C(=N\\NC(=O)c1cc(-c2ccncc2)nc2ccccc12)c1ccc(N2CCOCC2)cc1", "Potency": "inconclusive: 50.1 µM [inhibitor, partial curve, poor fit]"}
{"smiles": "COC(=O)CN1CCN(C(=O)c2ccc(F)cc2)c2ccccc2C1", "activity change, negative = inhibition": "inactive: 14.1% [at 11.4 µM]"}
{"smiles": "CCOC(=O)c1c(NC(=S)N2CCN(C)CC2)sc(C)c1-c1ccccc1", "Potency": "inconclusive: 50.1 µM [inhibitor, partial curve, poor fit]"}
{"smiles": "O=C(COc1ccc(F)cc1F)NNC(=O)Nc1cccc([N+](=O)[O-])c1", "Potency": "inconclusive: 89.1 µM [inhibitor, single point]"}
{"smiles": "O=C(CC1C(=O)NCCN1CC1CCCCC1)NCc1cc(F)ccc1F", "note": "(configuration not stated)", "Potency": "inconclusive: 20 µM [inhibitor, full curve, poor fit]"}
{"smiles": "Cc1ccc(-n2c(CNc3cccc(Cl)c3)n[nH]c2=S)cc1", "Potency": "inconclusive: 31.6 µM [inhibitor, full curve, poor fit]"}
{"smiles": "Cc1nnc(SCc2ccc([N+](=O)[O-])cc2)o1", "Potency": "inconclusive: 35.5 µM [inhibitor, full curve, poor fit]"}
{"smiles": "O=C(c1sc(N2CCOCC2)nc1-c1ccccc1)N1CCCCC1", "Potency": "inactive"}
{"smiles": "O=C(O)CSc1cc(NS(=O)(=O)c2ccc(Cl)cc2)c2ccccc2c1O", "Potency": "inconclusive: 28.2 µM [inhibitor, full curve, poor fit]"}
{"smiles": "CC(=O)N=c1c(C#N)cc2c(=O)n3ccccc3nc2n1Cc1ccccc1", "Potency": "inactive"}
{"smiles": "NS(=O)(=O)c1ccc(CCNC(=O)C2CCN(S(=O)(=O)c3ccccc3)CC2)cc1", "Potency": "inactive"}
{"smiles": "CCCCN=C1NN=C(c2cccc([N+](=O)[O-])c2)CS1", "Potency": "inconclusive: 89.1 µM [inhibitor, single point]"}
{"smiles": "CCc1c(C)sc(NC(=O)Cn2nc(C)c([N+](=O)[O-])c2C)c1C(N)=O", "Potency": "inconclusive: 31.6 µM [inhibitor, full curve, poor fit]"}
{"smiles": "S=c1[nH]nc(CSCCOc2ccccc2)o1", "Potency": "inconclusive: 50.1 µM [inhibitor, partial curve, poor fit]"}
{"smiles": "COc1ccc(CCNC(=O)c2ccc3c(c2)N(Cc2ccc(F)cc2)CCS3)cc1OC", "Potency": "inconclusive: 39.8 µM [inhibitor, partial curve, poor fit]"}
{"smiles": "Cc1cc(SCC(=O)c2ccc(Cl)cc2)nc(=O)[nH]1", "Potency": "inconclusive: 79.4 µM [inhibitor, partial curve, poor fit]"}
{"smiles": "COc1ccc(CCNC(=O)CN(c2cc([N+](=O)[O-])ccc2OC)S(C)(=O)=O)cc1OC", "Potency": "inconclusive: 70.8 µM [inhibitor, single point]"}
{"smiles": "O=C(O)CCC(=O)Nc1ccc2c(c1)Cc1cc(NC(=O)CCC(=O)O)ccc1-2", "Potency": "inconclusive: 70.8 µM [inhibitor, single point]"}
